Test results as given in patent publication US20240417485A1 (UNIVERSITY OF PITTSBURGH OF THE COMMONWEALTH SYSTEM OF …, published 2024).

B1: VH-Fc 115 (Fc fusion)
chain: EVQLVESGGGLVQPGGSLRLSCKGSGFTFGDYAIGWVRQAPGQRLEWIGWINTNSGSPKYAQGFTGRFTISRDNSKNTLYLQMNSLRAEDTAVYYCATDVVVPWGQGSQVTVSSSG[skipping human IgG1 Fc]
B2: VH-Fc 3 (Fc fusion)
chain: EVQLVESGGGLVQPGGSLRLSCAASGFTFSRYWMSWVRQAPGKALEWIGEINHSGSTNYNPSLKSLVTISRDNSKNTLYLQMNSLRAEDTATYYCARSLVPALSYYYYYGMDVWGQGTTVTVSSSG[skipping human IgG1 Fc]

Biological target: T1, recombinant uPAR-Biotin (human, UniProt Q03405 23-303, limits assumed, biotin, site not stated)
T1 construct: also called human uPAR (BLItz)
Experiment: BLItz, uPAR-Biotin on streptavidin biosensor

T1 sequence (Q03405 23-303 limits assumed): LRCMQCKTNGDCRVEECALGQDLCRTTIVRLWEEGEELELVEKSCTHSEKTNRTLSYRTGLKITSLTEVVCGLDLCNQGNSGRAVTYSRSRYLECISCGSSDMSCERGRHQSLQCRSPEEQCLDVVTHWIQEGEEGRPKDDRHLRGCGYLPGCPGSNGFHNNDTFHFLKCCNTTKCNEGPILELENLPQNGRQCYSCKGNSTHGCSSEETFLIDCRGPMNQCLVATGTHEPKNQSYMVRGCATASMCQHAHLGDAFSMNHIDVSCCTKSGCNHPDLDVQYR

Binder	Kd [nM]	koff [s⁻¹]	kon [M⁻¹ s⁻¹]
B1	71.1	0.0024	33000
B2	9.6	0.0012	120000
